# Reference: the supplement of paper PMC12462457
# Where a name gives a salt, the structure may show the parent alone. ± gives the standard deviation of the averaged measurements. This is one part of the list.
# Tested on: OVCAR8
# Test: cell count relative to DMSO vehicle (fold change); OVCAR8 is a high-grade serous ovarian cancer line and CX-5461 an RNA polymerase I inhibitor; higher = more surviving senescent cells (less killing)
# Settings: senescence inducer: CX-5461 3 µM 48 h, then 6 d recovery (CX senescent), exposure time 24 h
Compound,cell count (compound dose 1 µM),cell count (compound dose 5 µM)
CN(CCO)CC[C@H](CSc1ccccc1)Nc1ccc(S(=O)(=O)NC(=O)c2ccc(N3CCC([C@@H](O)c4ccccc4-c4ccc(Cl)cc4)CC3)cc2)cc1S(=O)(=O)C(F)(F)F,0.688 ± 0.091,0.251
C=C(C)[C@H](CC=C(C)C)Cc1c(O)cc(O)c2c1O[C@H](c1ccc(O)cc1O)CC2=O [Sophoraflavanone G],1.15 ± 0.2,1.09 ± 0.26
Nc1cccc2c1C(=O)N(C1CCC(=O)NC1=O)C2=O (stereo not given) [Pomalidomide],0.992 ± 0.23,0.981 ± 0.094
COc1ccc(S(=O)(=O)Nc2cc(-c3c(O)ccc4ccccc34)c(O)c3ccccc23)cc1,1.03 ± 0.083,1.05 ± 0.1
Cl.Cl.N=C(N)c1ccc2nc(-c3ccc(-c4nc5ccc(C(=N)N)cc5[nH]4)[se]3)[nH]c2c1 [DB1976 (dihydrochloride)],0.959 ± 0.19,0.986 ± 0.023
O=C1Nc2ccccc2/C1=C1/Nc2ccccc2C1=O [Indirubin],1.14 ± 0.11,1.14 ± 0.025
COc1cc(C(=O)O)ccc1NC(=O)[C@@H]1N[C@@H](CC(C)(C)C)[C@](C#N)(c2ccc(Cl)cc2F)[C@H]1c1cccc(Cl)c1F [Idasanutlin],1.09 ± 0.12,1.12 ± 0.16
CC1(C)CCC(C)(C)c2cc(NC(=O)c3ccc(C(=O)O)cc3)ccc21 [Tamibarotene],1.01 ± 0.22,0.94 ± 0.048
Cc1cc(C)c(Nc2ccnc(Nc3ccc(C#N)cc3)n2)c(C)c1 [Dapivirine],1.11 ± 0.023,1.07 ± 0.22
C[n+]1cc2c3c(ccc2c2ccc4cc5c(cc4c21)OCO5)OCO3,0.921 ± 0.13,0.0025 ± 0.0035
Nc1ncnc2c1ncn2[C@@H]1O[C@H](CO)[C@@H](O)[C@H]1O [Adenosine],1.13 ± 0.2,1.11 ± 0.11
CC(=O)O[C@@]12CO[C@@H]1C[C@H](O)[C@@]1(C)C(=O)[C@H](O)C3=C(C)[C@@H](OC(=O)[C@H](O)[C@@H](NC(=O)OC(C)(C)C)c4ccccc4)C[C@@](O)([C@@H](OC(=O)c4ccccc4)[C@H]21)C3(C)C [Docetaxel],1.2 ± 0.22,1.17 ± 0.061
O=C(/C=C/c1ccccc1)NC(NC(=S)Nc1cccc2cccnc12)C(Cl)(Cl)Cl (stereo not given) [Salubrinal],1.13 ± 0.083,1.12 ± 0.14
CO[C@H]1C[C@@H]2CC[C@@H](C)[C@@](O)(O2)C(=O)C(=O)N2CCCC[C@H]2C(=O)O[C@H]([C@H](C)C[C@@H]2CC[C@@H](OCCO)[C@H](OC)C2)CC(=O)[C@H](C)/C=C(\C)[C@@H](O)[C@@H](OC)C(=O)[C@H](C)C[C@H](C)/C=C/C=C/C=C/1C [Everolimus],1.06 ± 0.33,1.03 ± 0.32
Nc1ccn([C@@H]2O[C@H](CO)[C@@H](O)C2(F)F)c(=O)n1 [Gemcitabine],0.943 ± 0.4,1.04 ± 0.31
Nc1ccn([C@@H]2O[C@H](CO)[C@@H](O)C2(F)F)c(=O)n1 [Gemcitabine HCl],1.17 ± 0.23,1.18
NCCCCCCNS(=O)(=O)c1cccc2c(Cl)cccc12 [W-7 (hydrochloride)],1.09 ± 0.31,1.19 ± 0.19
CC1(C)CC[C@]2(C(=O)n3ccnc3)CC[C@]3(C)[C@H](C(=O)C=C4[C@@]5(C)C=C(C#N)C(=O)C(C)(C)[C@@H]5CC[C@]43C)[C@@H]2C1,0.122 ± 0.035,0.0235 ± 0.0021
C[C@H](NC(=O)/C(C#N)=C/c1cccc(Br)n1)c1ccccc1,1.18 ± 0.16,0.9 ± 0.15
O=c1[nH]c(=S)[nH]c(-c2ccccc2)c1Cc1c(O)ccc2ccccc12 [Cambinol],0.798 ± 0.28,1.04 ± 0.052
CCCC(=O)c1c(O)c(Cc2c(O)c(Cc3c(O)c(C)c(OC)c(C(=O)CCC)c3O)c(O)c(C(=O)[C@@H](C)CC)c2O)c(O)c(C)c1OC [Agrimol B],1.06 ± 0.27,1.16 ± 0.25
Cn1nc(C(F)(F)F)cc1-c1ccc(OCc2ccc(Cl)cc2)c(-c2cc(C(F)(F)F)cc(C(F)(F)F)c2)c1O,1.16 ± 0.17,1.1 ± 0.18

Compound,cell count (compound dose 1 µM),cell count (compound dose 5 µM)
CN1CCC(c2c(O)cc(O)c3c(=O)cc(-c4ccccc4Cl)oc23)C1CO (stereo not given) [Riviciclib hydrochloride],0.892 ± 0.11,0.915 ± 0.21
CN[C@@H](C)C(=O)N[C@H](C(=O)N1CCC[C@H]1C(=O)N[C@H]1c2ccccc2C[C@H]1OCC#CC#CCO[C@@H]1Cc2ccccc2[C@@H]1NC(=O)[C@@H]1CCCN1C(=O)[C@@H](NC(=O)[C@H](C)NC)C1CCCCC1)C1CCCCC1,0.334 ± 0.14,0.3 ± 0.0092
CC(C)=CC[C@@H](O)C1=CC(=O)c2c(O)ccc(O)c2C1=O [Shikonin],0.949 ± 0.18,1.04 ± 0.17
COc1ccc2ccc(=O)oc2c1CC=C(C)C [Osthole],1 ± 0.086,0.942 ± 0.063
CC(=O)Oc1ccccc1C(=O)O,1.24 ± 0.2,1.38 ± 0.21
O=c1oc2cc(O)ccc2c2ccc(O)cc12 [Urolithin A],1.06 ± 0.098,1.13 ± 0.17
C=C1C[C@@]2(O)O[C@@]3(C[C@H]2C(C)C)[C@@H](C)CC[C@@H]13 [Curcumol],1.04 ± 0.27,1.09 ± 0.047
N[C@H](Cc1c[nH]c2ccccc12)C(=O)N/N=C/c1ccc2nccnc2c1 [Rhosin (hydrochloride)],1.04 ± 0.067,1.14 ± 0.026
NS(=O)(=O)OC[C@H]1C[C@@H](Nc2ccnc3cc(-c4cccc(SC(F)(F)F)c4)nn23)[C@H](O)[C@@H]1O,0.049 ± 0.016,0.016 ± 0.0014
CC(C)c1cc(-c2n[nH]c(=O)n2-c2ccc3c(ccn3C)c2)c(O)cc1O [Ganetespib],1.03 ± 0.17,0.995 ± 0.15
N#CSc1cc(SC#N)c(N)nc1N,1.09 ± 0.09,1.02 ± 0.042
CCCCc1nc2cc(/C=C/C(=O)NO)ccc2n1CCN(CC)CC [Pracinostat (SB939)],0.923 ± 0.13,1.06 ± 0.49
COc1c2c(cc3c1-c1c(cc4c(c1OC)OCO4)C[C@H](C)[C@H](C)C3)OCO2 [Schisandrin C],0.986 ± 0.14,0.891 ± 0.18
O=C(/C=C/c1ccc(O)cc1)C(C(=O)/C=C/c1ccc(O)cc1)C(=O)Nc1ccccc1,1.11 ± 0.13,1.12 ± 0.17
CS(=O)(=O)c1ncc(Cl)c(C(=O)O)n1,1.13 ± 0.2,1.21 ± 0.2
CCc1c(C)sc(NC(=S)NC(=O)c2ccc(Cl)cc2)c1C(N)=O,0.92 ± 0.24,0.94 ± 0.18
N=C(N)Nc1ccc(C(=O)Oc2ccc3cc(C(=N)N)ccc3c2)cc1 [Nafamostat (mesylate)],1.08 ± 0.22,1.1 ± 0.17
NCCN1C(=O)c2cccc3c(Sc4ccc(Br)cc4)ccc(c23)C1=O,1.13 ± 0.23,1.01 ± 0.16
O=C(O[C@@H]1O[C@@H]2COC(=O)c3cc(O)c(O)c(O)c3-c3c(cc(O)c(O)c3O)C(=O)O[C@H]([C@H]1O)[C@@H]2O)c1cc(O)c(O)c(O)c1 [Corilagin],1.08 ± 0.14,1.1 ± 0.17
COC(=O)Nc1ccc(-c2nc(N3CCOCC3)c3cnn(C4CCN(C(=O)OC)CC4)c3n2)cc1,1.16 ± 0.24,0.973 ± 0.079
C[C@H](CC(=O)C[C@@H](C)[C@H]1C[C@H](O)[C@@]2(C)C3=C(C(=O)C[C@]12C)[C@@]1(C)CCC(=O)C(C)(C)[C@@H]1C[C@@H]3O)C(=O)O [Ganoderic acid A],1.09 ± 0.091,1.15 ± 0.033
COc1ccc2c(c1)-c1nn(CCCN(C)C)c3ccc([N+](=O)[O-])c(c13)N2 [Pyrazoloacridine],1.19 ± 0.28,1.32 ± 0.21

Compound,cell count (compound dose 1 µM),cell count (compound dose 5 µM)
COc1cc([C@H]2C(C#N)=C(N)Oc3c2ccc(N)c3N)cc(Br)c1OC [Crolibulin],1.08 ± 0.025,1.11 ± 0.074
CC(C)n1c(/C=C/C(O)CC(O)CC(=O)O)c(-c2ccc(F)cc2)c2ccccc21 (stereo not given) [Fluvastatin (sodium)],0.729 ± 0.14,0.705 ± 0.25
O=C1CCC[C@@H]2[C@H]3CCC[N+]4([O-])CCC[C@@H](CN12)[C@@H]34 (stereo not given in full) [Oxymatrine],1.08 ± 0.25,1.123 ± 0.0078
Cc1c(C)c2c(c(C)c1O)CCC(C)(C(=O)O)O2 (stereo not given),1.12 ± 0.11,1.11 ± 0.12
CC[C@H](C)C(=O)O[C@H]1C[C@@H](C)C=C2C=C[C@H](C)[C@H](CC[C@@H]3C[C@@H](O)CC(=O)O3)[C@H]21 [Lovastatin],0.792 ± 0.17,0.704 ± 0.13
O=c1cc(-c2ccccc2)oc2cc(O)c(O)c(O)c12,1.03 ± 0.043,1.02 ± 0.23
CCN(CC)CCCNc1cc2nc3n(c(=O)c2cc1F)CC/C3=C\c1ccc(C(C)C)cc1,1.13 ± 0.027,1.15 ± 0.31
O=C1c2ccccc2-c2nc3nnnn3nc21.O=C1c2ccccc2-c2nn3nnnc3nc21,0.202 ± 0.088,0.0855 ± 0.039
Oc1cc2c(cc1O)CN(C(=S)NCCc1ccc(Cl)cc1)CCC2 [Capsazepine],1.01 ± 0.12,0.7435 ± 0.0021
CC(=O)NC1=NN(C(C)=O)C(C)(c2ccccc2)S1 (racemic) [K858 (Racemic)],1.13 ± 0.079,0.927 ± 0.023
O=C(O)COc1ccccc1C(Nc1ccccn1)c1cc(Cl)c2cccnc2c1O (stereo not given),1.08 ± 0.23,0.941 ± 0.037
CC(C)CN(CC(=O)N1CCN(CC(OCc2ccc3ccccc3c2)c2ccc(Cl)cc2Cl)CC1)CC(C)C (stereo not given) [LYN-1604 (dihydrochloride)],1.2 ± 0.29,1.03 ± 0.18
O=C(O)CCCCC(CCSCc1ccccc1)SCc1ccccc1 (stereo not given) [Devimistat],1 ± 0.094,1.04 ± 0.069
O=C(O)C1=CO[C@@H](O[C@@H]2O[C@H](CO)[C@@H](O)[C@H](O)[C@H]2O)[C@@H]2C(CO)=CC[C@H]12 [Geniposidic acid],1.05 ± 0.24,0.994 ± 0.2
CCCCCNC(=N)N/N=C/c1c[nH]c2ccc(OC)cc12,1.145 ± 0.0021,1.17 ± 0.068
O=C(CCCCCCC(=O)Nc1ccc(CN[C@H](C(=O)OC2CCCC2)c2ccccc2)cc1)NO [Tefinostat],1.12 ± 0.061,1.34 ± 0.033
COc1c(C)c2c(c(O)c1C/C=C(\C)CCC(=O)O)C(=O)OC2,1.1 ± 0.026,1.12 ± 0.1
Cc1cc(Cl)ccc1OCCCC(=O)NO [Droxinostat],0.936 ± 0.15,1.05 ± 0.17
O=C(c1ccc(/C=C/c2n[nH]c3ccccc23)cc1)N1CCNCC1,1.08 ± 0.18,0.934 ± 0.027
C/C(=C\C(=O)Nc1ccccc1C(=O)O)c1ccc2ccccc2c1,1.02 ± 0.28,1.05 ± 0.15
CNC(=O)[C@@H](c1ccccc1)N1CCc2cc(OC)c(OC)cc2[C@@H]1CCc1ccc(C(F)(F)F)cc1 [Almorexant],1.01 ± 0.17,1.1 ± 0.27
